From patent US20260242455A1 (SCHOLAR ROCK, published 2026) come the findings set out here.

Experiment [1] has as its target T1, murine pro-myostatin (mouse, UniProt O08689 25-376).
T1 construct: Recombinant in the BLI and reporter assays; endogenous mouse protein in the immunoprecipitation and immunofluorescence experiments; also called proGDF8 (mouse); Murine ProGDF8
As to the kind of experiment: ForteBio BLI. In general terms: In BLI a coated tip is dipped into the sample, and binding shifts an interference pattern.

For experiment [2], the target named is T2, murine latent myostatin (mouse, UniProt O08689 25-267; O08689 268-376, Non-covalent complex of prodomain and growth factor; disulfide-linked homodimer, one copy of each chain is given.).
T2 construct: recombinant in BLI, endogenous in serum immunoprecipitation; also called Murine Latent GDF8; copies: 2 + 2
The experiment is described as follows: ForteBio BLI.

Experiment [3] concerns the target murine pro + latent GDF11 (murine, UniProt Q9Z1W4 21-405, limits assumed). The experiment is described as follows: ForteBio BLI.
In experiment [4] the target is murine latent GDF11 (murine, UniProt Q9Z1W4 21-296; Q9Z1W4 297-405, limits assumed). As to the kind of experiment: ForteBio BLI.
In experiment [5] the target is T1, murine pro-myostatin. As to the kind of experiment: cell-based or functional assay.
The target of experiment [6] is T1, murine pro-myostatin. As to the kind of experiment: cell-based or functional assay. This is another data set of the same source.
The target in experiment [7] is CD64 (FcgRI) (UniProt P12314 16-288, limits assumed). As to the kind of experiment: ELISA, relative to Ab1-G1. (ELISA stands for enzyme-linked immunosorbent assay.)
The target in experiment [8] is T3, C1q (UniProt P02745; P02746; P02747).
T3 construct: the three subunits are from general knowledge; also called complement component C1q
The experiment is described as follows: ELISA, relative to Ab1-G1.

The target in experiment [9] is T1, murine pro-myostatin. As to the kind of experiment: ForteBio Octet BLI kinetics.
The target of experiment [10] is T1, murine pro-myostatin. As to the kind of experiment: BLI, antibody on anti-human Fc capture tip, analyte 200 to 0.82 nM, global fit.
In experiment [11] the target is T2, murine latent myostatin. The experiment is described as above.

B1: Ab2 (germlined Ab1), IgG4 (S228P)/lambda (antibody)
heavy: QVQLVESGGGVVQPGRSLRLSCAASGFTFSSYGMHWVRQAPGKGLEWVAVISYDGSNKYYADSVKGRFTISRDNSKNTLYLQMNSLRAEDTAVYYCARDLLVRFLEWSHYYGMDVWGQGTTVTVSSASTKGPSVFPLAPCSRSTSESTAALGCLVKDYFPEPVTVSWNSGALTSGVHTFPAVLQSSGLYSLSSVVTVPSSSLGTKTYTCNVDHKPSNTKVDKRV[human IgG4 Fc with S228P (EU numbers) not shown]
light: QSVLTQPPSASGTPGQRVTISCSGSSSNIGSNTVHWYQQLPGTAPKLLIYSDNQRPSGVPDRFSGSKSGTSASLAISGLQSEDEADYYCAAWDDSLNGVFGGGTKLTVLGQPKAAPSVTLFPPSSEELQANKATLVCLISDFYPGAVTVAWKADSSPVKAGVETTTPSKQSNNKYAASSYLSLTPEQWKSHRSYSCQVTHEGSTVEKTVAPTECS
In general, Kd refers to the equilibrium constant for the complex coming apart. B1: the equilibrium dissociation constant (Kd) in experiment [1] came to 2.3 nM; in [2] it was 2 nM; in experiment [9], 8.39 nM; in experiment [10] it was 2.3 nM; in [11], 2 nM. The binding result in experiment [3] and in experiment [4] was “no binding (tested: 200 nM)” each time. Also, the “Activity Assay - 293T cells EC50” value in experiment [5] is 714 nM. In experiment [6], the “EC50 Activation Assay” value was 174 nM. Moreover, the “Relative CD64 Binding @ EC50(%)” value in [7] worked out at 5%. In addition, the “Relative C1q Binding @ EC50(%)” value in experiment [8] stood at 8%.
